# In PubChem BioAssay AID504333 (National Center for Advancing Translational Sciences (NCATS), 2011):
# Among all 360,000 compounds or so, about 16,000 (4.4%) were called active. Inconclusive means that the source gave no clear call. Such entries were picked first, then a sample of the others. The call rests on the fitted dose curve; in most records, active means well fitted inhibition curve with a large enough effect; inconclusive means small, poorly fitted or top-dose-only effect; inactive means no such curve, though single readings can be large or run the other way. Where the call is inconclusive, the potency comes from a doubtful curve fit.
# Target: Bromodomain adjacent to zinc finger domain protein 2B (Homo sapiens) (UniProt Q9UIF8)
# Assay: qHTS Assay for Inhibitors of BAZ2B; further: nearly all actives have a fitted effect of over 60% in size
# Conditions: AlphaScreen BAZ2B-H3K14Ac peptide displacement; activity change, negative = inhibition: at 114 µM (top of the series)
# Procedure, shortened: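 AlphaScreen displacement of biotin-H3(5-23)K14Ac peptide (50 nM final) from BAZ2B (50 nM final) in PBS pH 7.4, 0.01% Tween-20; complex preformed 30 min RT, then compounds (top 110 uM) 30 min RT, beads 20 min dark.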
# On the % scale 0 is the no-effect control and ±100 the full control effect; potency means the concentration at half of the fitted maximal effect; tags describe the fitted curve by direction and shape.
# UniProt Q9UIF8, sequence (Q9UIF8 whole entry, looked up, the tested form may be a part): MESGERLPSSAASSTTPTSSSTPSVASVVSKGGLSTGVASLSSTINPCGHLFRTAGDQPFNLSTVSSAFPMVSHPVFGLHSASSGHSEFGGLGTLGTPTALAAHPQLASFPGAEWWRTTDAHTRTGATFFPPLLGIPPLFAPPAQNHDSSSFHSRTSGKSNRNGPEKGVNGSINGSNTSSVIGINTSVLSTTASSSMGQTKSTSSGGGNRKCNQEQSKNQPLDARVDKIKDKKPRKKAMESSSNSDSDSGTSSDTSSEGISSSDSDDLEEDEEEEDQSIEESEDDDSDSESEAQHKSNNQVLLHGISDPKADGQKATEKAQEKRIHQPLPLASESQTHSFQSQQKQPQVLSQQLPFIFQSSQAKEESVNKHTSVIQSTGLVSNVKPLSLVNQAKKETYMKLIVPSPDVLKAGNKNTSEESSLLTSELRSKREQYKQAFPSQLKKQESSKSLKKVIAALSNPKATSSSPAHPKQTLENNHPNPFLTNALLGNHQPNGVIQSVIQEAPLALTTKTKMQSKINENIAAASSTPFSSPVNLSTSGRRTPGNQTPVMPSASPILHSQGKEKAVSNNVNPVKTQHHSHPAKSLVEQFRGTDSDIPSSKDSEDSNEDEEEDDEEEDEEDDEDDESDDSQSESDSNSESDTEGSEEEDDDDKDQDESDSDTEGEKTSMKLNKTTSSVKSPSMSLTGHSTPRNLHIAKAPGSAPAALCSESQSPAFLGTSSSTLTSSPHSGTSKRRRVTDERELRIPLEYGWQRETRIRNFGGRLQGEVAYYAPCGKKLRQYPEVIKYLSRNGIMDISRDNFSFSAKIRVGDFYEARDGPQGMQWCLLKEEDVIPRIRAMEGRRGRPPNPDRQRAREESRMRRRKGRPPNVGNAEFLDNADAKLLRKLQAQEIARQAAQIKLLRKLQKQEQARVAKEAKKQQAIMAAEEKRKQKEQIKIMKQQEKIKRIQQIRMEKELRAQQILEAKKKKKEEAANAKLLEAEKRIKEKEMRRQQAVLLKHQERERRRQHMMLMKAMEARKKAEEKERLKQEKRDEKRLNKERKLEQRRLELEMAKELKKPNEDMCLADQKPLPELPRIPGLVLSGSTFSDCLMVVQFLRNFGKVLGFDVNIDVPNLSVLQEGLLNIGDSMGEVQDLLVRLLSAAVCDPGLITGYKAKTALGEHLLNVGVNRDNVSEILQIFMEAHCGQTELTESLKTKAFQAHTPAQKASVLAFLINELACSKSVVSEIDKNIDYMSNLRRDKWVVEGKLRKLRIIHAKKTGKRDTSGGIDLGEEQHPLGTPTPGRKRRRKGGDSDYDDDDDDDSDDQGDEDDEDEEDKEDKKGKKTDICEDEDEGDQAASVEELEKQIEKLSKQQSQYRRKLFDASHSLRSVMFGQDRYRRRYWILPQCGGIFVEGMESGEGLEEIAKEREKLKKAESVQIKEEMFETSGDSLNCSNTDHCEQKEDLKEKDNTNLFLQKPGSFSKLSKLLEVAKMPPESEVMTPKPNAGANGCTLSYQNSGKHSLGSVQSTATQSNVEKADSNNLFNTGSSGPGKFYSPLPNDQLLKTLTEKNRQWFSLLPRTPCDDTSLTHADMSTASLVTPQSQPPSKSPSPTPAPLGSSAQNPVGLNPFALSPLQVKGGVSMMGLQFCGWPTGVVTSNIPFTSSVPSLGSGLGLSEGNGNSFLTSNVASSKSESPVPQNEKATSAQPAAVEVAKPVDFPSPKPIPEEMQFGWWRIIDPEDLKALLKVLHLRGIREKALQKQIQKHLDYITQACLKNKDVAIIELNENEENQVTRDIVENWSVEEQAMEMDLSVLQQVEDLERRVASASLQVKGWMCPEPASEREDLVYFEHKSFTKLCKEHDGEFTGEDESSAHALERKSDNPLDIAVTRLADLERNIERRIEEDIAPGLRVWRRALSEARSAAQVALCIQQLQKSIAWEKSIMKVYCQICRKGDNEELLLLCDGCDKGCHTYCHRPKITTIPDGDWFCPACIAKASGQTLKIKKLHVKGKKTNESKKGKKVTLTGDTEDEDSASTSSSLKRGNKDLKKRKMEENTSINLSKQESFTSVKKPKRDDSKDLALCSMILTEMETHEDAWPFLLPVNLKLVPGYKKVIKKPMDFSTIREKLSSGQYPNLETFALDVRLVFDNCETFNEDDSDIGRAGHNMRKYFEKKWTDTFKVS
Compound,Potency,"activity change, negative = inhibition"
C=CCN=C(NC#N)SCC(=O)c1cccc(OC)c1,"inconclusive: 89.1 µM [inhibitor, single point]",
Cc1ccc(CNC(=O)c2cc(=O)c3cc(C)c(C)cc3o2)cc1,,inactive: -8.47%
CN(C)CCCNc1c2c(nc3ccccc13)CCC2,,inactive: -4.42%
O=C(O)c1cccc(-n2cccc2/C=C2/NC(=O)N(c3ccc(Cl)cc3)C2=O)c1,active: 1.78 µM,
CC1CCCCN1Cc1c(O)ccc2c(=O)c(-c3ccc(Cl)cc3)coc12 (stereo not given),inactive,
O=C(NC(=S)NCCN1CCOCC1)c1ccccc1Br,"inconclusive: 3.55 µM [inhibitor, single point]",
CCCNS(=O)(=O)c1ccc(CCC(=O)N2CCOCC2)cc1,,inactive: -8.76%
O=c1c(C/C=C/c2ccccc2)c(O)ccn1CCc1c[nH]c2ccccc12,"inconclusive: 50.1 µM [inhibitor, partial curve]",
CCOC(=O)CCCNC(=O)CCCNC(=O)C(c1ccccc1)c1ccccc1,"inconclusive: 79.4 µM [inhibitor, single point]",
O=[N+]([O-])c1ccc(Cl)c(/C=N/N2CCN(Cc3ccccc3Cl)CC2)c1,active: 25.1 µM,
CCc1ccc(OCC(O)CN2CCN(c3ccc(OC)cc3)CC2)cc1 (stereo not given),active: 70.8 µM,
CCN1CCN(C(=O)Cn2c(-c3cccs3)cc3cc(Cl)ccc32)CC1,,inactive: -2.9%
CCCCCOc1ccc(NC(=O)C(=O)NCCCn2ccnc2)cc1,,inactive: -6.95%
CCc1ccc[n+](-c2[nH]c(=O)sc2/C=N/N=C(\[O-])CCn2c3ccccc3c3ccccc32)c1,"inconclusive: 50.1 µM [inhibitor, partial curve]",
CC1=CC(=NOC(=O)/C=C/c2ccccc2)C=C(C)C1=O,active: 12.6 µM,
COc1ccc(CNCCc2ccc(Cl)cc2)cc1OCc1ccccc1,active: 56.2 µM,
NC(=O)CC(NC(=O)c1ccccc1)c1ccc(N2CCN(c3ccccn3)CC2)c([N+](=O)[O-])c1 (stereo not given),,inactive: -37%
COc1ccc(S(=O)(=O)Nc2cc(Cl)ccc2OC)cc1,,inactive: 9.91%
Cc1cc(/C=N/NC(=O)c2nn(C)cc2Cl)c(C)n1-c1cccc(Br)c1,"inconclusive: 50.1 µM [inhibitor, partial curve]",
O=C(Oc1cc(=O)oc2c1c(=O)n1c3c(cccc23)CC1)c1ccc(F)cc1,"inconclusive: 89.1 µM [inhibitor, single point]",
COC(=O)c1c(NC(=O)c2cccc(N3C(=O)CCC3=O)c2)sc2c1CCN(C(C)=O)C2,,inactive: -27%
O=C(NCCCN1CCOCC1)c1cc(Cl)ccc1OCc1ccccc1,,inactive: -24.6%
Cc1sc2nc(SCc3nc(-c4ccccc4)no3)n(-c3ccccc3)c(=O)c2c1C,,inactive: 1.01%
CC1CCCN(c2nc3ccccc3nc2C(C#N)S(=O)(=O)c2ccccc2)C1 (stereo not given),"inconclusive: 56.2 µM [inhibitor, partial curve]",
O=C(NC(=S)N1CCN(Cc2ccc3c(c2)OCO3)CC1)c1cccc(Br)c1,active: 25.1 µM,

Compound,Potency,"activity change, negative = inhibition"
CC(C)c1ccc(-c2nn(-c3ccccc3)cc2C2C(C#N)=C(N)OC3=C2C(=O)CC(C)(C)C3)cc1 (stereo not given),,inactive: -9.17%
Cc1cccc(C)c1N=Cc1c(O)n(-c2nccs2)c(=O)c2ccccc12,"inconclusive: 39.8 µM [inhibitor, partial curve]",
COC(=O)c1cc(=O)nc2sccn12,"inconclusive: 100 µM [inhibitor, single point]",
Cc1cc(Cl)ccc1OCC(O)CNCCc1ccc(S(N)(=O)=O)cc1 (stereo not given),,inactive: 19.6%
O=C(OC1CCOC1=O)c1ccc(Cl)c(S(=O)(=O)N2CCOCC2)c1 (stereo not given),"inconclusive: 89.1 µM [inhibitor, single point]",
Cc1ccccc1OCC(=O)Nc1ccc(N2CCOCC2)cc1N1CCOCC1,,inactive: -38.5%
CN(C(=O)c1ccccc1C(=O)OCC(=O)Nc1cccc(Br)c1)c1ccccc1,,inactive: 11.5%
CCc1ccc2c(c1)C1(NN=C(c3ccccc3)S1)C(=O)N2 (stereo not given),"inconclusive: 20 µM [inhibitor, full curve, poor fit]",
Cc1ccc(-c2noc(-c3ccc(NC4CCCC4)c([N+](=O)[O-])c3)n2)cc1,"inconclusive: 89.1 µM [inhibitor, single point]",
COc1ccc(C(=O)Nc2nncs2)cc1S(=O)(=O)N1CCOCC1,,inactive: 10.3%
Cc1c(C(=O)N2CCCc3ccccc32)sc2nc(-c3ccccc3)cn12,"inconclusive: 28.2 µM [inhibitor, full curve]",
O=C(CSc1ncc(-c2ccccc2)[nH]1)Nc1ccccc1F,"inconclusive: 56.2 µM [inhibitor, partial curve]",
CCOc1ccccc1CNC(=O)c1ccc2c(c1)N(CC)CCS2,"inconclusive: 17.8 µM [inhibitor, full curve]",
COc1ccc(/C=C/C(=O)c2c(O)c(OC)c3occc3c2OC)cc1,"inconclusive: 7.94 µM [inhibitor, full curve, poor fit]",
COc1cc(C(=O)Nc2sc3c(c2C#N)CCCC3)c(Br)c(OC)c1OC,,inactive: -3.45%
S=c1[nH]nc(COc2ccc3ccccc3c2)o1,,inactive: -34.2%
COc1cc(CN2CCN(c3cccc(Cl)c3)CC2)cc(OC)c1OC,active: 50.1 µM,
O=C(CCCCCNc1nc(=S)[nH]c2ccccc12)N1CCN(c2ccccn2)CC1,,inactive: -36.4%
Cc1ccc(-n2cccc2/C=C2/C(=N)N3C(=NC2=O)SN=C3S(C)(=O)=O)cc1,active: 44.7 µM,
O=C(c1ccccc1F)N1CCN(c2ccc([N+](=O)[O-])c(NCC3CCCO3)c2)CC1 (stereo not given),"inconclusive: 31.6 µM [inhibitor, full curve]",
COCCNC(=O)c1ccc2c(=O)n(CCCN3CCCC3=O)c(=S)[nH]c2c1,"inconclusive: 89.1 µM [inhibitor, single point]",
O=C(Cn1c(-c2cccs2)cc2ccccc21)NCCCN1CCN(c2cccc(Cl)c2)CC1,active: 25.1 µM,
O=C1CCCc2cc(S(=O)(=O)N3CCCC(C(=O)NCc4ccccc4Cl)C3)ccc2N1 (stereo not given),,inactive: 9.14% [at 57.1 µM]
Fc1ccc(Br)cc1/C=N/N1CCN(c2ccccc2)CC1,"inconclusive: 50.1 µM [inhibitor, partial curve]",
COc1ccc(/C=C2/CCc3ccccc3C2=O)cc1CN1CCOCC1,"inconclusive: 44.7 µM [inhibitor, partial curve]",

Compound,Potency,"activity change, negative = inhibition"
Cc1ccccc1NC(=O)CSc1nn2c(=O)c(C)nnc2s1,"inconclusive: 89.1 µM [inhibitor, single point]",
Cc1ccc(C(=O)N/N=C/c2ccc(-c3ccc(Br)cc3[N+](=O)[O-])o2)o1,"inconclusive: 79.4 µM [inhibitor, single point]",
Cc1cc(Cl)ccc1N(CC(=O)N=Nc1c(O)[nH]c2ccccc12)S(C)(=O)=O,"inconclusive: 70.8 µM [inhibitor, single point]",
O=C(COCc1cc(-c2ccc3c(c2)OCO3)on1)N1CCCCC1,"inconclusive: 89.1 µM [inhibitor, single point]",
COc1ccc(-c2nn(-c3ccccc3)cc2/C=C/C(=O)N2CCOCC2)cc1OC,"inconclusive: 79.4 µM [inhibitor, single point]",
C=CCn1c(SCc2csc(-c3ccc(C)cc3)n2)nnc1-c1ccccc1OC,,inactive: 1.89%
COc1ccc(CNC(=O)C(C)NCc2ccccc2Cl)cc1 (stereo not given),"inconclusive: 89.1 µM [inhibitor, single point]",
COc1ccc(OC)c(C2C(C(C)=O)=C(O)C(=O)N2Cc2cccnc2)c1 (stereo not given),"inconclusive: 100 µM [inhibitor, single point]",
Cc1ccc(-c2cc(-c3ccccc3)nc(N(C)N)n2)cc1,"inconclusive: 44.7 µM [inhibitor, partial curve]",
S=c1[nH]nc(CN2CCCC2)n1Cc1ccccc1,,inactive: -3.98%
Cc1cc(OC(=O)c2ccc(S(=O)(=O)N(C)C)cc2)cc(=O)o1,"inconclusive: 89.1 µM [inhibitor, single point]",
O=C(O)c1ccc(COc2ccc3c4c(c(=O)oc3c2)CCC4)o1,"inconclusive: 89.1 µM [inhibitor, single point]",
O=C(/C=C/c1ccco1)Nc1ccc(Oc2ccccc2)cc1,"inconclusive: 39.8 µM [inhibitor, partial curve]",
Cc1c(C(=O)c2cccc([N+](=O)[O-])c2)c2ccccn2c1CCC#N,active: 50.1 µM,
COC(=O)c1ccc(OCC2c3cc(OC)c(OC)cc3CCN2C(=O)c2ccc(OC)cc2)cc1 (stereo not given),"inconclusive: 15.8 µM [inhibitor, full curve]",
CC(C)(C)C1CCc2nc(NC(=O)c3cccc(Cl)c3)sc2C1 (stereo not given),,inactive: -14.6%
CC1CCCCN1Cc1ccc(N(C)C)cc1 (stereo not given),,inactive: 10.3%
O=C1C2C3C=CC(CC3)C2C(=O)N1/N=C/c1c(O)ccc2ccccc12 (stereo not given),,inactive: -5.26%
O=c1c2ccccc2sn1-c1cc(S(=O)(=O)N2CCOCC2)ccc1N1CCCC1,active: 14.1 µM,
Cc1ccc(S(=O)(=O)NCc2ccccn2)c(C)c1C,"inconclusive: 1.26 µM [inhibitor, full curve, poor fit]",
O=C(CSc1nnc(-c2ccccc2Br)n1-c1ccccc1)c1ccc(F)cc1,"inconclusive: 79.4 µM [inhibitor, partial curve]",
O=C(/C=C/c1ccc(F)cc1)NCc1ccco1,"inconclusive: 89.1 µM [inhibitor, single point]",
CCOc1ccc(CCNC(=O)C(CC)n2nc(C)c3c(C)n(-c4ccccc4)nc3c2=O)cc1 (stereo not given),,inactive: -13.9%
CC(C)NC1=C(Cl)C(=O)c2ccccc2C1=O,active: 25.1 µM,
COc1ccc(-c2nn3c(=O)cc(CN4CCN(C(=O)Nc5cc(C)ccc5C)CC4)nc3s2)cc1,,inactive: 5.73%
